Results reported in PubChem BioAssay AID686970 (National Center for Advancing Translational Sciences (NCATS), 2013).
The campaign covered roughly 360,000 compounds. About 6,000 (1.7%) were called active. The shares of active, inactive and inconclusive entries below differ from those in the screen. Calls come from the whole dose curve; as a rule, active = well fitted cell-killing curve with a large enough effect; inconclusive = small, poorly fitted or top-dose-only effect, or effect the other way; inactive = flat fitted curve, though single readings scatter. Potencies of inconclusive entries are left out as doubtful fits.

Experiment: qHTS for induction of synthetic lethality in tumor cells producing 2HG: qHTS for the HT-1080-NT fibrosarcoma cell line;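 note: NT is the 2HG producing partner of a matched IDH1 knockdown line; nearly all actives have a fitted effect of over 55% in size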;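 for activity, negative = less viability: 0% = DMSO-treated cells and -100% = media-only wells without cells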
Conditions: HT-1080-NT fibrosarcoma viability, CellTiter-Glo ATP luminescence, 48 h; activity, negative = less viability: at 46.1 µM (top of the series) unless noted
Procedure, shortened: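 A 48-hour cytotoxicity screen used HT-1080-NT cells plated 2 hours before compound delivery. ATP-based CellTiter-Glo luminescence measured viability, normalized to DMSO and no-cell controls.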
Potency is the fitted concentration of half-maximal effect; tags give direction and shape of the fitted curve.

Structure (SMILES)	Potency	activity, negative = less viability
CCCCCCCCN1C(=O)[C@H](CC(=O)N2CCN(C(=O)c3ccco3)CC2)C[C@@]2(C(=O)OCC)CCCC=C12	inconclusive [cytotoxic, single point]	
COc1ccc(S(=O)(=O)N2CCCCC2c2cc(C(=O)Nc3ccccc3)no2)cc1 (configuration not stated)		inconclusive: 2.1%
O=C(CSC1=NNC(c2ccccn2)S1)Nc1cccc(Cl)c1 (configuration not stated)	inconclusive [cytotoxic, partial curve]	
COCCCNC(=O)C[C@H]1C[C@H](C(=O)N2CCCCC2)[C@@]2(CCc3ccccc3)c3[nH]c4ccc(Cl)cc4c3CCN2C1=O	inactive	
CC(C)N(CCNC(=O)COc1ccc2oc3c(c2c1)CCCC3)C(C)C	inactive	
CC(C)(C)c1ccc(C(=O)NNc2cc(N3CCCCC3)nc(N3CCCCC3)n2)cc1	inactive	
CCOc1ccc(S(=O)(=O)NCc2cccnc2)cc1NC(=O)c1ccccc1	inconclusive [rising, single point]	
COc1ccc(C2C3=C(CCCC3=O)Nc3c(-c4ccccc4)c(C)nn32)cc1 (configuration not stated)	inconclusive [cytotoxic, single point]	
O=C(c1cccc(S(=O)(=O)N2CCN(c3ccc(F)cc3)CC2)c1)N1CCCC(C(F)(F)F)C1 (configuration not stated)	active: 16.4 µM	
Cc1ccc(C)c(OCCCNCc2ccccc2)c1	inactive	
COc1cccc(CC(=O)Nc2nc(-c3ccc(OC)c(OC)c3)cs2)c1	inconclusive [cytotoxic, partial curve]	
CN(Cc1ccc2nsnc2c1)C(=O)C1CCC(=O)N(CCc2ccccc2)C1 (configuration not stated)	inactive	
COc1ccc(C(CCNCc2ccc(F)cc2)c2ccc(F)cc2)cc1 (configuration not stated)	inconclusive [cytotoxic, single point]	
CCCCNCCCOc1cccc(Cl)c1Cl	inconclusive [cytotoxic, single point]	
O=C(NCc1ccccc1)c1nc(S(=O)(=O)Cc2ccccc2)ncc1Cl	inconclusive [cytotoxic, single point]	
COC(=O)c1ccc2nc(C3CCCCC3)c(CC(C)(C)C)n2c1	inconclusive [cytotoxic, single point]	
O=C(Cn1c(=O)c2cccn2c2ccc(F)cc21)NCCCN1CCN(c2ccccc2F)CC1	inconclusive [cytotoxic, single point]	
CCNC(=O)COc1ccc(/C=C2\COc3ccccc3C2=O)cc1OC	inconclusive [cytotoxic, single point]	
CCN(C(=O)N(CC)c1ccccc1)c1ccccc1		inconclusive: 26.2%
COc1cc2ccc(C(C)=NNC(N)=S)cc2cc1OC	inactive	
O=C(NCC(c1cccnc1)N1CCN(c2ccccc2)CC1)c1ccco1 (configuration not stated)	inactive	
CS(=O)(=O)c1ncc(Cl)c(C(=O)Nc2ccc(OC(F)F)cc2)n1	inconclusive [cytotoxic, single point]	
COc1ccc(S(=O)(=O)N2CCN(C(=O)C3CC3)CC2)cc1	inactive	
Cc1cc(N)n(-c2ccccc2)n1	inactive	
CN(C)CCNC(=O)c1cc2sc3ccccc3c2s1	active: 20.6 µM	
O=c1oc2ccccc2c(Nc2ccc3ccccc3c2)c1[N+](=O)[O-]	inconclusive [cytotoxic, single point]	

Structure (SMILES)	Potency	activity, negative = less viability
COc1ccccc1OCc1nnc(SCC(=O)N2CCCCC2)o1	inactive	
O=C(N/N=C/C=N/NC(=O)c1ccco1)c1ccco1	inactive	
CN(C)CCN1C(=O)C2C(C(=O)Nc3cc(Cl)cc(Cl)c3)C3C=CC2(O3)C1C(=O)NC1CCCCC1 (configuration not stated)	inactive	
O=c1[nH]c2ccc(Cl)cc2c(-c2ccccc2)c1N1CCN(CCO)CC1	active: 11.2 µM	
O=[N+]([O-])c1nn(-c2ccc(Cl)cc2)n(O)c1=NCc1ccccc1Cl	inactive	
Cc1ccc(NC(=O)Cn2cnc(C(=O)Nc3ccc(C)c(C)c3)n2)cc1C	inactive	
CCCOc1cccc(C2C(C(=O)c3ccc(C)o3)=C(O)C(=O)N2c2nc(C)c(C(C)=O)s2)c1 (configuration not stated)	inactive	
O=C(c1ccco1)N(CC1CCCO1)c1nc(-c2ccccc2)cs1 (configuration not stated)		inconclusive: -30.3% [cytotoxic]
Fc1ccccc1CNc1nc(NCC2CC2)nc2ccsc12	active: 23.1 µM	
CCn1cc(C(=O)NCc2ccc3c(c2)OCO3)c(=O)c2cc(F)c(N3CCN(C(=O)c4ccco4)CC3)cc21	active: 18.4 µM	
O=C(c1ccc(COc2ccccc2Br)o1)N1N=C(C(F)F)CC1(O)C(F)F (configuration not stated)	inactive	
COc1cccc(/C=N/NC(=O)C(=O)NCc2ccco2)c1O	active: 8.91 µM	
COc1ccccc1NS(=O)(=O)c1cc(NC(=O)c2cccnc2)ccc1N1CCCCC1	inconclusive [cytotoxic, full curve, poor fit]	
COc1cccc(NC(=O)N2CCc3nc(Nc4cc(Cl)cc(Cl)c4)ncc3C2)c1		inconclusive: -47.2%
COc1cc2c(cc1OC)[C@H](C)N(C(=O)NCc1ccccc1)CC2	inconclusive [cytotoxic, single point]	
CCOc1cc(C(c2c(C)[nH][nH]c2=O)c2c(C)[nH][nH]c2=O)ccc1O	inactive	
COc1cccc(C2C(C#N)=C(N)OC(C(C)(C)C)=C2C#N)c1 (configuration not stated)	inconclusive [cytotoxic, single point]	
COc1cc(CC(=O)NNC(=O)c2cc(C)oc2C)cc(OC)c1OC	inactive	
COc1cc(N=C2C(=O)N3c4c(cccc42)C(C)=CC3(C)C)cc(OC)c1	inactive	
Cc1ccc(NC(=O)CSCC(=O)N2CCN(c3cccc(C(F)(F)F)c3)CC2)cc1	inactive	
COCCN(C(=O)COC(=O)c1ccc(Cl)s1)c1c(N)n(Cc2ccccc2)c(=O)[nH]c1=O	inactive	
COc1cccc(OC)c1C(=O)OCC(=O)NC1CCCCCC1	inactive	
COc1cc(C2CC(c3cccnc3)=NN2c2ccc(F)cc2)cc(OC)c1OC (configuration not stated)	inactive	
Cc1cc(NC(=O)CCC(=O)N(CCc2ccccc2)C(C(=O)NC2CCCC2)c2ccco2)no1 (configuration not stated)	inconclusive [cytotoxic, partial curve, poor fit]	
O=C(c1cc(Br)ccc1Cl)N1CCN(c2ccccn2)CC1	inactive	
CCC(C)n1c(NC(=O)c2ccccc2)c(C#N)c2nc3ccccc3nc21 (configuration not stated)	active: 18.4 µM	

Structure (SMILES)	Potency	activity, negative = less viability
CCCCNC(=O)C[C@@H]1C[C@@]2(C(=O)OC)CCCCC=C2N(Cc2cccc3ccccc23)C1=O	inconclusive [cytotoxic, single point]	
CCC(C)C(=O)Nn1c(C2CC2)nc2cc(OC)c(OC)cc2c1=O (configuration not stated)	inconclusive [rising, single point]	
O=C(NCCN1CCN(C(=O)C(c2ccccc2)c2ccccc2)CC1)C(=O)Nc1ccccc1	inactive	
O=C(Oc1ccc[nH]c1=O)C1CC1	inconclusive [cytotoxic, single point]	
CCN1CCN(c2cc(C)c3cc(NC(=O)c4ccc5c(c4)OCO5)ccc3n2)CC1	inconclusive [cytotoxic, partial curve]	
OCCOCCn1c(C2CCCN2c2nc(-c3ccc(F)cc3)cs2)nc2cc(Cl)c(Cl)cc21 (configuration not stated)	inconclusive [cytotoxic, single point]	
Cc1cc(C)c(NC(=O)CC(=O)c2ccccc2)c(Cl)c1	inactive	
COc1cc(OC)c2c(-c3ccccc3)cc(=O)oc2c1C(CCN1CCCC(C)C1)c1ccc2c(c1)OCO2 (configuration not stated)	inconclusive [cytotoxic, single point]	
COc1ccc2nc(NC(=O)C(NS(=O)(=O)c3cccc4nsnc34)C(C)C)sc2c1 (configuration not stated)	inconclusive [cytotoxic, single point]	
C=CCNc1ncnc2c1ncn2C1OC(CO)C(O)C1O (configuration not stated)	active: 9.2 µM	
CCOC(=O)C1CCCN(C(=O)c2ccc(SC(F)(F)F)cc2)CC1 (configuration not stated)	inactive	
Cn1nc(C(F)(F)F)c(/C=N/OC(=O)c2ccccc2)c1SCc1ccccc1Cl	inconclusive [cytotoxic, single point]	
O=C(CCSc1ccc(Cl)cc1)c1cccs1	inconclusive [cytotoxic, single point]	
Cc1ccc2nc(-c3ccccn3)c(NC3CCCC3)n2c1	inconclusive [cytotoxic, single point]	
Cc1sc(Cc2nc(O)cs2)nc1-c1ccccc1	inactive	
Cc1noc(C)c1CSCC(=O)NCCN1C(=O)S/C(=C\c2ccccc2F)C1=O	inactive	
CCOC(=O)c1c(NC(=O)CN2CCOCC2)sc(C(=O)NC)c1C	inactive	
COC(=O)c1cc(NC(=O)CC(=O)c2cccc(N)c2)cc(C(=O)OC)c1	inconclusive [cytotoxic, partial curve]	
O=S(=O)(c1ccccc1S(=O)(=O)N1CCCCC1)N1CCCCC1		inconclusive: -37.5% [cytotoxic]
Cc1ccccc1Cc1c(C)nc2c(C(=O)NCc3ccco3)cnn2c1C	inconclusive [cytotoxic, single point]	
CC(Oc1ncnc2ccccc12)C(=O)Nc1cccc(S(=O)(=O)N2CCOCC2)c1 (configuration not stated)	inactive	
COc1cc(Nc2ccccc2Cl)c([N+](=O)[O-])nc1[N+](=O)[O-]	inconclusive [cytotoxic, single point]	
CC(Nc1cccnc1)=C(C#N)C#N	inactive	
O=c1c2ccccc2oc2ccc(-c3ccc4cc[nH]c4c3)cc12	inactive	
Cc1ccc(-c2cc(NC(=O)CCl)n(-c3ccccc3)n2)cc1	inconclusive [cytotoxic, single point]	
